According to the supplement of paper PMC12217912:
Some of the results follow. Sequences were assembled here from the parent chain. Inactive controls read about 0.05.

B1: TEV protease; numbered along this chain (parent)
chain: MGESLFKGPRDYNPISSSICHLTNESDGHTTSLYGIGFGPFIITNKHLFRRNNGTLVVQSLHGVFKVKDTTTLQQHLVDGRDMIIIRMPKDFPPFPQKLKFREPQREERICLVTTNFQTKSMSSMVSDTSCTFPSGDGIFWKHWIQTKDGQCGSPLVSTRDGFIVGIHSASNFTNTNNYFTSVPKNFMELLTNQEAQQWVSGWRLNADSVLWGGHKVFMVKPEEPFQPVKEATQL

Variants of: B1
Assay: raw area under fraction-flipped curve 0-4 h after induction (AUC4h, not background-subtracted), DNA-recorder readout of cleavage of the substrate (dimensionless); higher = more cleavage of the substrate by the protease variant
Conditions: temperature: 34 °C; time window: 0-4 h after rhamnose induction
Method: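 In vivo DNA recorder in E. coli TOP10(DE3) ΔrhaA at 34 °C. Each TEVp single-site mutant (parent TEVp 0) is paired with a single-site variant of the 7-mer TEVs (canonical ENLYFQ|S). The substrate sits between flexible linkers in a Bxb1-sfGFP-TEVs-SsrA fusion, so cleavage stabilises Bxb1 and speeds flipping of a recombination array, read by NGS. The value is the raw area under the fraction-flipped curve over 0-4 h after rhamnose induction (AUC4h), with ≥20 reads per time point. It is not background-subtracted; inactive controls average about 0.047.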
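Note: Bxb1 expression induced with 0.2% (w/v) L-rhamnose at OD600 near 0.5, cultures sampled hourly, flipped fraction per protease–substrate barcode pair counted by paired-end Illumina sequencing.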

Row | Variant | area with substrate ENAYFQS | area with substrate ENCYFQS | area with substrate ENDYFQS | area with substrate ENEYFQS | area with substrate ENFYFQS | area with substrate ENKYFQS | area with substrate ENNYFQS | area with substrate ENQYFQS | area with substrate ENRYFQS | area with substrate ENTYFQS | area with substrate ENVYFQS | area with substrate ENYYFQS | area with substrate ENGYFQS | area with substrate ENMYFQS | area with substrate ENPYFQS | area with substrate ENSYFQS | area with substrate ENWYFQS | area with substrate ENHYFQS | area with substrate ENIYFQS
1 | MGESLFKGPRKYNPISSSICHLTNESDGHTTSLYGIGFGPFIITNKHLFRRNNGTLVVQSLHGVFKVKDTTTLQQHLVDGRDMIIIRMPKDFPPFPQKLKFREPQREERICLVTTNFQTKSMSSMVSDTSCTFPSGDGIFWKHWIQTKDGQCGSPLVSTRDGFIVGIHSASNFTNTNNYFTSVPKNFMELLTNQEAQQWVSGWRLNADSVLWGGHKVFMVKPEEPFQPVKEATQL [D11K] | 0.0655 | 0.0707 | 0.0635 | 0.0532 | 0.0448 | 0.0635 | 0.0611 | 0.0596 | 0.0627 | 0.0676 | 0.067 | 0.039 |  |  |  |  |  |  | 
2 | MGESLFKGPRDPNPISSSICHLTNESDGHTTSLYGIGFGPFIITNKHLFRRNNGTLVVQSLHGVFKVKDTTTLQQHLVDGRDMIIIRMPKDFPPFPQKLKFREPQREERICLVTTNFQTKSMSSMVSDTSCTFPSGDGIFWKHWIQTKDGQCGSPLVSTRDGFIVGIHSASNFTNTNNYFTSVPKNFMELLTNQEAQQWVSGWRLNADSVLWGGHKVFMVKPEEPFQPVKEATQL [Y12P] | 0.0639 | 0.0631 | 0.0717 | 0.0727 | 0.0542 | 0.0658 | 0.0662 | 0.0575 | 0.0495 | 0.0617 | 0.0955 | 0.0447 | 0.0649 | 0.0796 | 0.0639 | 0.129 | 0.0403 |  | 
3 | MGESLFKGPRDYNPISSFICHLTNESDGHTTSLYGIGFGPFIITNKHLFRRNNGTLVVQSLHGVFKVKDTTTLQQHLVDGRDMIIIRMPKDFPPFPQKLKFREPQREERICLVTTNFQTKSMSSMVSDTSCTFPSGDGIFWKHWIQTKDGQCGSPLVSTRDGFIVGIHSASNFTNTNNYFTSVPKNFMELLTNQEAQQWVSGWRLNADSVLWGGHKVFMVKPEEPFQPVKEATQL [S18F] | 0.0608 | 0.0638 | 0.05 | 0.0541 | 0.0719 |  | 0.0529 | 0.056 | 0.0673 | 0.0689 | 0.0662 |  | 0.0722 |  | 0.0828 | 0.0583 | 0 | 0.0609 | 0.122
4 | MGESLFKGPRDYNPISSPICHLTNESDGHTTSLYGIGFGPFIITNKHLFRRNNGTLVVQSLHGVFKVKDTTTLQQHLVDGRDMIIIRMPKDFPPFPQKLKFREPQREERICLVTTNFQTKSMSSMVSDTSCTFPSGDGIFWKHWIQTKDGQCGSPLVSTRDGFIVGIHSASNFTNTNNYFTSVPKNFMELLTNQEAQQWVSGWRLNADSVLWGGHKVFMVKPEEPFQPVKEATQL [S18P] | 0.0424 | 0.0528 |  | 0.0561 |  | 0.066 | 0.0548 | 0.0642 | 0.0543 | 0.0483 | 0.0725 | 0.0488 | 0.0542 |  | 0.0454 | 0.06 |  | 0.0454 | 
5 | MGESLFKGPRDYNPISSVICHLTNESDGHTTSLYGIGFGPFIITNKHLFRRNNGTLVVQSLHGVFKVKDTTTLQQHLVDGRDMIIIRMPKDFPPFPQKLKFREPQREERICLVTTNFQTKSMSSMVSDTSCTFPSGDGIFWKHWIQTKDGQCGSPLVSTRDGFIVGIHSASNFTNTNNYFTSVPKNFMELLTNQEAQQWVSGWRLNADSVLWGGHKVFMVKPEEPFQPVKEATQL [S18V] | 0.0659 | 0.0695 | 0.0606 | 0.057 | 0.0452 |  | 0.0505 | 0.0572 | 0.0481 | 0.0747 | 0.077 | 0.045 | 0.0584 |  |  | 0.0734 |  | 0.0681 | 0.115
6 | MGESLFKGPRDYNPISSSQCHLTNESDGHTTSLYGIGFGPFIITNKHLFRRNNGTLVVQSLHGVFKVKDTTTLQQHLVDGRDMIIIRMPKDFPPFPQKLKFREPQREERICLVTTNFQTKSMSSMVSDTSCTFPSGDGIFWKHWIQTKDGQCGSPLVSTRDGFIVGIHSASNFTNTNNYFTSVPKNFMELLTNQEAQQWVSGWRLNADSVLWGGHKVFMVKPEEPFQPVKEATQL [I19Q] | 0.0586 | 0.0582 | 0.0487 | 0.0724 | 0.0624 |  | 0.0559 | 0.051 | 0.0545 |  | 0.0654 |  | 0.0619 | 0.088 | 0.0569 | 0.0594 | 0.0043 | 0.0519 | 0.0644
7 | MGESLFKGPRDYNPISSSIAHLTNESDGHTTSLYGIGFGPFIITNKHLFRRNNGTLVVQSLHGVFKVKDTTTLQQHLVDGRDMIIIRMPKDFPPFPQKLKFREPQREERICLVTTNFQTKSMSSMVSDTSCTFPSGDGIFWKHWIQTKDGQCGSPLVSTRDGFIVGIHSASNFTNTNNYFTSVPKNFMELLTNQEAQQWVSGWRLNADSVLWGGHKVFMVKPEEPFQPVKEATQL [C20A] | 0.046 | 0.0697 | 0.0573 | 0.0729 | 0.0637 | 0.0381 |  | 0.0602 | 0.0564 |  | 0.0707 | 0.0672 | 0.0682 | 0.0706 | 0.0555 | 0.0738 | 0.032 |  | 
8 | MGESLFKGPRDYNPISSSIEHLTNESDGHTTSLYGIGFGPFIITNKHLFRRNNGTLVVQSLHGVFKVKDTTTLQQHLVDGRDMIIIRMPKDFPPFPQKLKFREPQREERICLVTTNFQTKSMSSMVSDTSCTFPSGDGIFWKHWIQTKDGQCGSPLVSTRDGFIVGIHSASNFTNTNNYFTSVPKNFMELLTNQEAQQWVSGWRLNADSVLWGGHKVFMVKPEEPFQPVKEATQL [C20E] | 0.0531 | 0.0458 | 0.045 | 0.055 | 0.039 | 0.0237 | 0.0422 | 0.042 | 0.0622 | 0.0305 |  |  |  |  |  | 0.0483 | 0.0052 |  | 0.0428
9 | MGESLFKGPRDYNPISSSICSLTNESDGHTTSLYGIGFGPFIITNKHLFRRNNGTLVVQSLHGVFKVKDTTTLQQHLVDGRDMIIIRMPKDFPPFPQKLKFREPQREERICLVTTNFQTKSMSSMVSDTSCTFPSGDGIFWKHWIQTKDGQCGSPLVSTRDGFIVGIHSASNFTNTNNYFTSVPKNFMELLTNQEAQQWVSGWRLNADSVLWGGHKVFMVKPEEPFQPVKEATQL [H21S] | 0.0585 |  | 0.0735 | 0.0625 | 0.0575 | 0.064 |  | 0.0539 |  | 0.0412 | 0.0927 | 0.0574 | 0.0577 | 0.078 | 0.0629 | 0.0628 |  | 0.0564 | 
